Assay results reported in the supplement of paper PMC8728848.
Some of the results follow.

Columns and labels:
Assay in all cases: glycan array binding signal (z-score within array); higher = stronger binding
Conditions in all cases: glycan notation: IUPAC condensed, linker removed
GlcNAc(b1-3)Man = molecular target: GlcNAc(b1-3)Man
How it was run: (§1)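 The Consortium for Functional Glycomics database supplied 3228 glycan arrays, of which those lacking an available protein sequence were dropped. The binding signal, a within-array Z-score, was averaged across arrays of the same protein sequence and across linkers. Negative scores can be read as non-binding.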

[1] = molecular target: GlcNAc(b1-3)[GlcNAc(b1-4)][GlcNAc(b1-6)]GlcNAc
How it was run: as §1

[2] = molecular target: GlcNAc(b1-3)[GlcNAc(b1-6)]Gal(b1-4)GlcNAc
How it was run: as §1

[3] = molecular target: GlcNAc(b1-3)[GlcNAc(b1-6)]GalNAc
How it was run: as §1

[4] = molecular target: GlcNAc(b1-4)Gal(b1-4)GlcNAc
How it was run: as §1

GlcNAc(b1-4)GlcNAc = molecular target: GlcNAc(b1-4)GlcNAc
How it was run: as §1

[5] = molecular target: GlcNAc(b1-4)GlcNAc(b1-4)GlcNAc
How it was run: as §1

[6] = molecular target: GlcNAc(b1-4)GlcNAc(b1-4)GlcNAc(b1-4)GlcNAc(b1-4)GlcNAc
How it was run: as §1

[7] = molecular target: GlcNAc(b1-4)GlcNAc(b1-4)GlcNAc(b1-4)GlcNAc(b1-4)GlcNAc(b1-4)GlcNAc
How it was run: as §1

[8] = molecular target: GlcNAc(b1-4)[GlcNAc(b1-6)]GalNAc
How it was run: as §1

[9] = molecular target: GlcNAc(b1-6)Gal(b1-4)GlcNAc
How it was run: as §1

GlcNAc(b1-6)GalNAc = molecular target: GlcNAc(b1-6)GalNAc
How it was run: as §1

[10] = molecular target: GlcNAc6S(b1-3)Gal(b1-4)GlcNAc
How it was run: as §1

Kdn(a2-3)Gal(b1-3)GalNAc = molecular target: Kdn(a2-3)Gal(b1-3)GalNAc
How it was run: as §1

Kdn(a2-3)Gal(b1-3)GlcNAc = molecular target: Kdn(a2-3)Gal(b1-3)GlcNAc
How it was run: as §1

Kdn(a2-3)Gal(b1-4)Glc = molecular target: Kdn(a2-3)Gal(b1-4)Glc
How it was run: as §1

Kdn(a2-3)Gal(b1-4)GlcNAc = molecular target: Kdn(a2-3)Gal(b1-4)GlcNAc
How it was run: as §1

[11] = molecular target: Kdn(a2-3)Gal(b1-4)[Fuc(a1-3)]GlcNAc
How it was run: as §1

Kdn(a2-6)Gal(b1-4)GlcNAc = molecular target: Kdn(a2-6)Gal(b1-4)GlcNAc
How it was run: as §1

[12] = molecular target: Man(a1-2)Man(a1-2)Man(a1-3)Man
How it was run: as §1

[13] = molecular target: Man(a1-2)Man(a1-2)Man(a1-6)[Man(a1-3)]Man
How it was run: as §1

Man(a1-2)Man(a1-3)Man = molecular target: Man(a1-2)Man(a1-3)Man
How it was run: as §1

[14] = molecular target: Man(a1-2)Man(a1-3)[Man(a1-2)Man(a1-6)]Man
How it was run: as §1

B1: GS13455A-bfa-343-25-343 (Bacteroides fragilis) (protein)
chain: KDEIQIVDQDTSWQMDNKYIEEDIREQLGIDPFTDLVYLGYYGNPYTQLEAINDLVNTTLVGKNELSFKVKVTKPYKEDIKVNLMKEDKLVTDFPEMAEGIPLFPSENCTFEGGVLKAGELETTVKLTLKDVEKLNNLSGYVMAIKLTMEGSHEHLAIARTRSSYFVKLNLSIRLDNIDSSNKKIEGKGFNKEISFKSDIRPDKLGSLNDGNFTANNWYTSNANNYLTIILPEKQSLKGFRLDTNTSPSGSYMLKSCRVMVETPDGNWVNHGVFDRKSMDGIAYISFKKPVECTKVRFENMMAFNGRFSVDVNEVTAFR
glycan array binding signal (z-score) (GlcNAc(b1-3)Man): 0.399
glycan array binding signal (z-score) [1]: 0.234
glycan array binding signal (z-score) [2]: 0.499
glycan array binding signal (z-score) [3]: -0.093
glycan array binding signal (z-score) [4]: -0.678
glycan array binding signal (z-score) (GlcNAc(b1-4)GlcNAc): -0.293
glycan array binding signal (z-score) [5]: -0.289
glycan array binding signal (z-score) [6]: -0.754
glycan array binding signal (z-score) [7]: -0.011
glycan array binding signal (z-score) [8]: 0.259
glycan array binding signal (z-score) [9]: -0.248
glycan array binding signal (z-score) (GlcNAc(b1-6)GalNAc): -0.656
glycan array binding signal (z-score) [10]: -0.789
glycan array binding signal (z-score) (Kdn(a2-3)Gal(b1-3)GalNAc): -0.38
glycan array binding signal (z-score) (Kdn(a2-3)Gal(b1-3)GlcNAc): 0.445
glycan array binding signal (z-score) (Kdn(a2-3)Gal(b1-4)Glc): -0.418
glycan array binding signal (z-score) (Kdn(a2-3)Gal(b1-4)GlcNAc): 0.438
glycan array binding signal (z-score) [11]: -0.619
glycan array binding signal (z-score) (Kdn(a2-6)Gal(b1-4)GlcNAc): -0.249
glycan array binding signal (z-score) [12]: -0.655
glycan array binding signal (z-score) [13]: -0.171
glycan array binding signal (z-score) (Man(a1-2)Man(a1-3)Man): -0.645
glycan array binding signal (z-score) [14]: -0.554
